Laboratory results: PubChem BioAssay AID488969 (Vanderbilt High Throughput Screening Facility, 2010)
The full ranking holds about 110,000 compounds; the median of “z-score” is about -0.1, and the highest 2% start at about 2. Some of the results follow. Calls of active or inactive are those of the source.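 The calls were made as follows: active = z-score in the third read window above 3 or below -3; inactive = the rest.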

These molecules were tested against Metabotropic glutamate receptor 8 (Rattus norvegicus) (UniProt P70579) (assay: mGluR8 Gi/Go-coupled signaling modulation – cell-based, rat, thallium flux, HTS, primary screen (AID 488969)). Conditions: HEK293 rat mGluR8, GIRK (G protein-gated inwardly rectifying potassium channel) thallium flux, FluoZin2; at 10 µM; stronger effect = higher value; submaximal glutamate (EC20) added with thallium.
Sequence of UniProt P70579 (P70579 whole entry, looked up): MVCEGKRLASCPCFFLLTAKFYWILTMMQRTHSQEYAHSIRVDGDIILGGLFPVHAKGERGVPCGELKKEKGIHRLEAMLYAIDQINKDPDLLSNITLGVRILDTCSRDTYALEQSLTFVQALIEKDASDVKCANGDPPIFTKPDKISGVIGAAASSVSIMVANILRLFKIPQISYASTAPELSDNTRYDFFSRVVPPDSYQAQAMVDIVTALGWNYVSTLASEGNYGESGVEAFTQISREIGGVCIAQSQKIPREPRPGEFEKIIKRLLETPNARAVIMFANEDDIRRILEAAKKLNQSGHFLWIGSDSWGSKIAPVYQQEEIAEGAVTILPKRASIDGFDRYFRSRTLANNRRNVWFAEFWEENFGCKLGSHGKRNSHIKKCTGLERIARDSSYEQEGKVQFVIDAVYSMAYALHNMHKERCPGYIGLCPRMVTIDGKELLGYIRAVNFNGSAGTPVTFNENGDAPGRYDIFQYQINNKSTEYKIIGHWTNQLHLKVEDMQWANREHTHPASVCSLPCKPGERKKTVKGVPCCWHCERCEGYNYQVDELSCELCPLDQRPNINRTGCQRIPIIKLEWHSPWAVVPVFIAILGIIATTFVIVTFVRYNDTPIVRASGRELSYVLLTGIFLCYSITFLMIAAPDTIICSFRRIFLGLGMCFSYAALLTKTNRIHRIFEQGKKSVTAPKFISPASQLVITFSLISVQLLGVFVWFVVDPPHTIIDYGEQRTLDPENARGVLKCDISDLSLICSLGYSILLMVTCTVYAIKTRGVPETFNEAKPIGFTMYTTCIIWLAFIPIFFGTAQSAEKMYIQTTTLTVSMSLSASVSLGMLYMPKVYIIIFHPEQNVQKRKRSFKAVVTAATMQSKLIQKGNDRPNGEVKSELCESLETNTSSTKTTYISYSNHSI
`Nn1cnnc1SCC(=O)Nc1ccc2c(c1)OCCO2` was tested, and the z-score was -1.
`O=C(CSc1nnc(Cn2cnc3ccccc32)o1)Nc1cccc2ccccc12` was tested, and the z-score was 0.497.
For `Cc1ccc(S(=O)(=O)N(CCC(=O)O)Cc2ccc(Cl)cc2)cc1`, the z-score was -0.125.
`CCn1c(CCCNC(=O)c2ccc(F)cc2)nc2ccccc21` was tested, and the z-score was 0.003.
For `O=C(Cn1nnc(-c2ccccc2F)n1)Nc1cccc2ncccc12`, the z-score was 2.27.
For `O=[N+]([O-])c1ccc(COc2cccc(CNc3ccc(Br)cc3)c2)cc1`, the z-score was 0.133.
In the case of `CC(C)OC(=O)CSc1nc2ccccc2s1`, the z-score is reported as -0.625.
`C=CCn1c(SC(C)CC)nc(O)cc1=O` (stereo not given) showed a z-score of -0.418.
In the case of `CN1CCN(C2=C(Cl)C(=O)N(c3ccc(Cl)c(Cl)c3)C2=O)CC1`, the z-score is reported as -0.0299.
For `N=c1ccn(Cc2ccc(Cl)cc2)cc1`, the z-score was 0.222.
Work on `CCOC(=O)c1c(NC(=O)CSc2nncn2C)sc(C)c1C` yielded a z-score of -0.165.
With `Clc1ccc(-c2nc3cnccn3c2NC2CCCC2)cc1` the z-score was 0.545.
Work on `COC(=O)Cc1c(C)nc2nc(-c3ccc(C)cc3)[nH]n2c1=O` yielded a z-score of -0.14.
`O=C(Cn1nnc(-c2ccccc2NC(=O)C2CC2)n1)NC1CCCCC1` showed a z-score of -0.659.
`CC(C)c1ccc(-c2c(C#N)c(N)nc3c2CCCCC3)cc1` showed a z-score of -0.123.
`CCCCOc1ccc(NC(=O)c2cnc(C)cn2)cc1` showed a z-score of -0.266.
`Cc1cc(C)c2nc(NC(=O)c3cc(C)on3)sc2c1` was tested, and the z-score was active: 12.
`CCOC(=O)C(C)Sc1cc(CS(=O)(=O)c2ccccc2)nc(-c2ccccc2)n1` (stereo not given) showed a z-score of -0.369.
`CCc1ccc(NC(=O)C(CC)Sc2nc3cc4c(cc3c(=O)n2Cc2ccco2)OCO4)cc1` (stereo not given) was tested, and the z-score was -0.0882.
`Cc1cccc(-n2cnc(C(=O)N/N=C\c3ccc(Br)cc3)c2)n1` showed a z-score of -0.288.
In the case of `Cc1nn(-c2ccc(F)cc2)c(C)c1NS(=O)(=O)c1ccc2ccccc2c1`, the z-score is reported as -2.14.
In the case of `CCCCNS(=O)(=O)c1ccc2nc(SCC(=O)Nc3ccccc3Cl)[nH]c2c1`, the z-score is reported as 0.0355.
Molecule `Cc1ccc(/C=C/C(=O)Nc2ncc(C)s2)o1` has a z-score of -0.48.
`S=C(NCCC1=CCCCC1)Nc1ccccc1` gave a z-score of 0.0488.
`CCC(C)NC(=O)Cn1c(=O)n(-c2ccccc2)c(=O)c2ccc(C(=O)NCc3ccco3)cc21` (stereo not given) was tested, and the z-score was 0.899.
`Cc1ccc(-c2cc(-c3cccs3)[nH]n2)c(O)c1` gave a z-score of 2.77.
`COc1ccc(Br)cc1C(=O)Nc1ccc(Cc2ccncc2)cc1` showed a z-score of -0.203.
For `CC(C)Cn1cc(C(=O)NCC2CCCO2)c2c3ccccc3n(C)c2c1=O` (stereo not given), the z-score was -0.552.
In the case of `Cc1c(C(=O)OCC(C)C)[nH]c2c1C(=O)CC(c1cccs1)C2` (stereo not given), the z-score is reported as -0.347.
Molecule `CC1=C(C(=O)N2CCOCC2)C(c2cc(C)cs2)NC(=O)N1` (stereo not given) has a z-score of 0.566.
`COC(=O)c1ccc(NC(=O)CN2C(=O)CNC2=O)cc1` gave a z-score of 0.0202.
Work on `O=C(CCCOc1ccc(Cl)cc1Cl)N/N=C/c1ccccc1` yielded a z-score of 0.0235.
For `Clc1ccc(-c2nc3n(n2)Cc2ccccc2-3)cc1`, the z-score was -0.0134.
`O=C(COc1cccc2c1CCN(Cc1ccccc1)C2=O)NCc1ccco1` gave a z-score of -0.446.
With `CC1CN(C(=S)SCC(=O)c2ccc(Cl)cc2)CC(C)O1` (stereo not given) the z-score was -0.281.
`COc1cccc(NC(=O)N(Cc2cc3cc(C)cc(C)c3[nH]c2=O)CC2COCCO2)c1` (stereo not given) showed a z-score of -0.438.
With `COc1cc(C2CC(=O)c3cnc(N)nc3C2)cc(OC)c1OC` (stereo not given) the z-score was -0.369.
Work on `Cc1ccc2cccc(Oc3ncnc4sc(C)c(C)c34)c2n1` yielded a z-score of -0.904.
With `CC1(C)CC(=O)C(=Cc2cn(-c3ccccc3)nc2-c2ccc(Cl)cc2)C(=O)C1` the z-score was -0.347.
In the case of `O=C(N/N=C\c1ccc(Cl)s1)c1ccc(Cn2cccn2)o1`, the z-score is reported as -0.34.
`CCOC(=O)Cn1c(=N)n(CCOc2cccc(C)c2)c2ccccc21` was tested, and the z-score was active: 3.95.
For `Cc1ccc2c(c1)c(=O)c(Br)c(C)n2Cc1ccccc1`, the z-score was -0.0481.
In the case of `O=C(Nc1ccc(-c2nc3ccccc3[nH]2)cc1)c1ccc2c(c1)OCO2`, the z-score is reported as 0.00562.
`COc1cc(/C=C2/NC(=O)N(Cc3ccccc3F)C2=O)ccc1Oc1ccc([N+](=O)[O-])cn1` showed a z-score of -0.0118.
For `CCC(C(=O)N1CCN(C(=O)c2ccco2)CC1)c1ccccc1` (stereo not given), the z-score was 0.0759.
Work on `Cc1cc(Cl)cc(Cl)c1CNc1c([N+](=O)[O-])c(=O)oc2ccccc12` yielded a z-score of -0.529.
For `Cc1nc(C#N)c(NCc2ccc3c(c2)OCO3)o1`, the z-score was -0.138.
`CCc1c(C)nc2ncnn2c1N1CCC(C(=O)Nc2cccc(C(C)=O)c2)CC1` gave a z-score of 0.313.
Molecule `CCN1CCN(Cc2cccc(Oc3ccc(Cl)cc3)c2)CC1` has a z-score of 0.924.
`CCOC(=O)CN1CC23C=CC(O2)C(C(=O)Nc2ccc(OCC)cc2)C3C1=O` (stereo not given) was tested, and the z-score was -0.308.
With `O=C(Nc1ccc2c(c1)OCO2)c1cc2n(n1)C(C(F)(F)F)CC(c1ccccc1)N2` (stereo not given) the z-score was -0.19.
`Clc1ccc(CON/C=N/c2ncnc3sccc23)c(Cl)c1` showed a z-score of -0.317.
Molecule `C=C(C)CSc1nc2c(cc1C#N)CCC2` has a z-score of -0.119.
Molecule `O=c1c(-c2ccccc2)c(O)c2cccc3c2n1CCC3` has a z-score of -0.833.
`CCCCN(CCCC)C(=O)CSc1nnc2n(C)c(=O)c3c4c(sc3n12)CCCC4` was tested, and the z-score was active: -3.22.
